Source: publication PMC4336329 (PLoS ONE, 2015)
Screen size: about 310,000 compounds; about 14,000 (4.5%) showed an effect of 50% or more. The effect is printed as a negative number. The list shows a part of the results.
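Further: peak tail current of the secondary pulse compared with the same well before compound.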

What follows are molecules tested against human ether-à-go-go-related gene (hERG) potassium channel (human, UniProt Q12809) (assay: primary screen, population patch clamp on CHO cells stably expressing hERG).
human ether-à-go-go-related gene (hERG) potassium channel, sequence (Q12809 whole entry, looked up): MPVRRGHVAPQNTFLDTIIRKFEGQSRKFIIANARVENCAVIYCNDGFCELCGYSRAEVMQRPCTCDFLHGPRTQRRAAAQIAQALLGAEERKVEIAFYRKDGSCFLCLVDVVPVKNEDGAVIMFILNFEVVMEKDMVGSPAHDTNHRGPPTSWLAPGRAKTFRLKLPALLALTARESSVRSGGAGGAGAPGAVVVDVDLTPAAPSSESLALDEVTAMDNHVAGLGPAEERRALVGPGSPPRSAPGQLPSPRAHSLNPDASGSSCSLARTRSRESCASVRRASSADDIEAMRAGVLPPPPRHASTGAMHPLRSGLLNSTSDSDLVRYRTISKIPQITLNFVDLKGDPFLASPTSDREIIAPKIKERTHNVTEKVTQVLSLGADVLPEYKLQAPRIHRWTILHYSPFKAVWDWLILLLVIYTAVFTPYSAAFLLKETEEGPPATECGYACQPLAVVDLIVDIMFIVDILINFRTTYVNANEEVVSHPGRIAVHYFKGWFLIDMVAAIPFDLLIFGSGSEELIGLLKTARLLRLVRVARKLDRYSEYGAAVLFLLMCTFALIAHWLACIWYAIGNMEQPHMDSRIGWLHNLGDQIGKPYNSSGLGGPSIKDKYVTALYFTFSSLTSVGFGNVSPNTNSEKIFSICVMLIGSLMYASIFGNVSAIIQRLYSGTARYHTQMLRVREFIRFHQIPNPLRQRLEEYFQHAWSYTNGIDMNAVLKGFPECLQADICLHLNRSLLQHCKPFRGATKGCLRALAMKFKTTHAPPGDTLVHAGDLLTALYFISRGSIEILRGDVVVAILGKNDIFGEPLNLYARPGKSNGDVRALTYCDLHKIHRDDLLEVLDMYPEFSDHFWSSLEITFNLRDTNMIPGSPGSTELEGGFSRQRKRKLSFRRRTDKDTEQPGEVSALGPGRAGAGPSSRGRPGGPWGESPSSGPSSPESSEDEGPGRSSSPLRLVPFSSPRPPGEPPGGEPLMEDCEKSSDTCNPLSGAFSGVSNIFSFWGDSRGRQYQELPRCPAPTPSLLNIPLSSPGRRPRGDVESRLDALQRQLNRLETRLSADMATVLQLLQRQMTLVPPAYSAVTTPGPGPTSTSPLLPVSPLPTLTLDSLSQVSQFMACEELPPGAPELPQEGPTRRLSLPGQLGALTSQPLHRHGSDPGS
In the case of `CCOc1ccc(S(=O)(=O)NC(C)(C)C)cc1-c1nc2c(C(C)(C)C)nn(C)c2c(=O)[nH]1`, the “hERG current change (%, negative = inhibition) at 10uM” value was -3.83%. With `CC(C)C(NC(=O)C(C)N1C(=O)c2ccccc2C1=O)c1ccccc1` (centres unmarked) the “hERG current change (%, negative = inhibition) at 10uM” value was 12.2%. In the case of `CCc1cc(=O)oc2c(C)c(OC(C)C(=O)NCC3CCC(C(=O)O)CC3)ccc12` (centres unmarked), the “hERG current change (%, negative = inhibition) at 10uM” value was 21.2%. With `CC(CCc1ccccc1)NC(=O)C(=O)NCCc1ccccc1` (centres unmarked) the “hERG current change (%, negative = inhibition) at 10uM” value was -0.47%. In the case of `COc1ccccc1CNc1ccc(CNc2ncn[nH]2)cc1`, the “hERG current change (%, negative = inhibition) at 10uM” value was 2.56%. With `CCOC(=O)c1c(CSc2ccsc2)n(C)c2cc(Br)c(O)c(CN(C)C)c12.Cl` the “hERG current change (%, negative = inhibition) at 10uM” value was -84.2%. In the case of `COCCN=C1Sc2nc3ccc(C)cc3cc2CN1Cc1cccs1`, the “hERG current change (%, negative = inhibition) at 10uM” value was -11.1%. With `Br.CC(C)(C)C(=O)Cn1c(NCCCO)nc2ccccc21` the “hERG current change (%, negative = inhibition) at 10uM” value was -7.81%. With `CCOC(=O)c1ccc(NC(=O)CN2C(=O)NC3(CCCCCC3)C2=O)cc1` the “hERG current change (%, negative = inhibition) at 10uM” value was -4.28%. For `C=CCSc1nnc(NC(=O)CN2C(=O)NC3(CCCC3)C2=O)s1`, the “hERG current change (%, negative = inhibition) at 10uM” value was 9.29%. In the case of `COc1ccc(C2CC(c3ccccc3)=NN2C(=O)c2cccs2)cc1` (centres unmarked), the “hERG current change (%, negative = inhibition) at 10uM” value was -1.42%. With `[Cl-].c1ccc(Cn2c[n+](Cc3ccccc3)cn2)cc1` the “hERG current change (%, negative = inhibition) at 10uM” value was 5.26%. With `CCN1CCN(CC(=O)Nc2cc3c(cc2C(C)=O)OCO3)CC1.O=C(O)C(=O)O` the “hERG current change (%, negative = inhibition) at 10uM” value was -8.04%. `CCN(CC)c1ccc(C(=O)NC(=S)Nc2cc(S(=O)(=O)N3CCOCC3)ccc2-n2cncn2)cc1` was tested, and the “hERG current change (%, negative = inhibition) at 10uM” value was -7.1%. For `Cc1noc(C)c1COc1ccccc1C(=O)Nc1cccc(S(=O)(=O)N(C)C)c1`, the “hERG current change (%, negative = inhibition) at 10uM” value was -42.8%. With `CNC(=O)c1cccnc1Nc1cccc(C(F)(F)F)c1` the “hERG current change (%, negative = inhibition) at 10uM” value was -18.4%. For `COc1cc(NC(=O)c2cccc([N+](=O)[O-])c2C)ccc1NC(=O)c1ccco1`, the “hERG current change (%, negative = inhibition) at 10uM” value was 6.87%. In the case of `Cc1ccc2c(c1)c(C)c(C)n2CC(O)Cn1nnc2ccccc21` (centres unmarked), the “hERG current change (%, negative = inhibition) at 10uM” value was 1.76%. With `COc1cccc(CNC(=O)C2CCCN(S(=O)(=O)c3c(C)noc3/C=C/N(C)C)C2)c1` (centres unmarked) the “hERG current change (%, negative = inhibition) at 10uM” value was -18.1%. For `Cc1ccc(C(=O)NC2CCN(Cc3ccccc3)CC2)cc1S(=O)(=O)N1CCOCC1`, the “hERG current change (%, negative = inhibition) at 10uM” value was -30.2%. With `CC(=O)Nc1c2c(nn1-c1ccc(C)cc1)CS(=O)(=O)C2` the “hERG current change (%, negative = inhibition) at 10uM” value was 19.1%. For `Cc1cccc(-n2c(SCC(=O)N3CC(=O)Nc4ccccc43)nc3ccccc3c2=O)c1`, the “hERG current change (%, negative = inhibition) at 10uM” value was 9.48%. In the case of `CCOc1ccc(-c2n[nH]c(=S)n2/N=C/c2cc3c(cc2[N+](=O)[O-])OCO3)cc1`, the “hERG current change (%, negative = inhibition) at 10uM” value was 10.9%. For `Cc1nc(C)c(C(=O)NNS(=O)(=O)c2ccccc2)s1`, the “hERG current change (%, negative = inhibition) at 10uM” value was 8.26%. `O=C(CSc1nc2ccccc2[nH]1)c1c[nH]c2ccccc12` was tested, and the “hERG current change (%, negative = inhibition) at 10uM” value was 11.5%. For `O=C(Nc1ccc(C(F)(F)F)cc1)N1CCN(c2ccnc3cc(Cl)ccc23)CC1`, the “hERG current change (%, negative = inhibition) at 10uM” value was -62.2%. `COc1ccccc1C(=O)NNC(=O)c1ccncc1` was tested, and the “hERG current change (%, negative = inhibition) at 10uM” value was 12.2%. For `CC(C)OCCCNC(=O)c1cn(C)c2ccc(S(=O)(=O)N3CCCC3)cc2c1=O`, the “hERG current change (%, negative = inhibition) at 10uM” value was 7.24%. For `CC(=O)c1ccc(OC(C)C)c(CC(C(N)=O)C(N)=O)c1`, the “hERG current change (%, negative = inhibition) at 10uM” value was 9.72%. `Cc1ccc2[nH]c(-c3ccccc3)c(CN3CCN(C)CC3)c(=O)c2c1` was tested, and the “hERG current change (%, negative = inhibition) at 10uM” value was -9.94%. With `Cc1ccc(N2CC(C(=O)Nc3nnc(SCC(=O)Nc4nc(C)cs4)s3)CC2=O)cc1` (centres unmarked) the “hERG current change (%, negative = inhibition) at 10uM” value was 10.7%. For `Cc1ccc(S(=O)(=O)N(C)C)cc1NC(=O)c1cc(-c2ccco2)nc2ccccc12`, the “hERG current change (%, negative = inhibition) at 10uM” value was 15.3%. With `CSc1nc2ccccc2c(=O)n1N` the “hERG current change (%, negative = inhibition) at 10uM” value was 6.17%. For `CCCc1cc(C(=O)Nc2ccc(F)c(Cl)c2)no1`, the “hERG current change (%, negative = inhibition) at 10uM” value was -5.83%. With `Cc1ccc2cc(S(=O)(=O)NCCCC(=O)O)ccc2c1` the “hERG current change (%, negative = inhibition) at 10uM” value was 7.37%. With `C/C(=N\OCC(=O)Nn1c(=O)[nH]c2ccccc2c1=O)c1cccs1` the “hERG current change (%, negative = inhibition) at 10uM” value was -10.9%. For `Cn1c(=O)oc2cc(S(=O)(=O)N3CCCC(C(=O)N4CCc5ccccc5C4)C3)ccc21` (centres unmarked), the “hERG current change (%, negative = inhibition) at 10uM” value was -24.9%. `COC(=O)c1cc(S(=O)(=O)NCCc2ccc(C)cc2)c[nH]1` was tested, and the “hERG current change (%, negative = inhibition) at 10uM” value was -9.92%. For `Cc1cccc(C)c1NC(=O)C(NC=O)c1ccccc1Cl` (centres unmarked), the “hERG current change (%, negative = inhibition) at 10uM” value was 0.855%. `Cc1ccc(-c2cc(C(=O)N3CCN(c4ccccc4O)CC3)c3ccccc3n2)o1` was tested, and the “hERG current change (%, negative = inhibition) at 10uM” value was -70.9%. In the case of `Cc1cc(C(=O)OCC(=O)NC2CCS(=O)(=O)C2)c2ccccc2n1` (centres unmarked), the “hERG current change (%, negative = inhibition) at 10uM” value was -14.5%. With `C#CCOCCOCCOCCNc1nc(N2CCN(C(=O)CCCCCCCCCCNC(=O)[C@@H](CCSC)n3cc(CCO)nn3)CC2)nc(N2CCN(C(=O)CCCCCCCCCCNC(=O)[C@H]([C@@H](C)CC)n3cc(CCCCCN)nn3)CC2)n1` the “hERG current change (%, negative = inhibition) at 10uM” value was -0.494%. In the case of `C[n+]1cc(C(=O)N2CCCCC2)ccc1/C=C/c1c[nH]c2ccccc12.[I-]`, the “hERG current change (%, negative = inhibition) at 10uM” value was -3.97%. `CC1Cc2ccccc2N1C(=O)c1cnc2n(c1=O)CCS2` (centres unmarked) was tested, and the “hERG current change (%, negative = inhibition) at 10uM” value was 12.1%. In the case of `CCOC(=O)N1C2C=C(C)[C@@H]2[C@@H]2CC(=O)N21` (some centres unmarked), the “hERG current change (%, negative = inhibition) at 10uM” value was 14%. `COc1ccccc1-n1cnc2cc(NCc3ccccn3)ccc21` was tested, and the “hERG current change (%, negative = inhibition) at 10uM” value was -17.5%. In the case of `CCOC(=O)N1CCC(N2CC34C=CC(O3)C(C(=O)Nc3ccc(C)cc3)C4C2=O)CC1` (centres unmarked), the “hERG current change (%, negative = inhibition) at 10uM” value was -0.268%. For `CCSc1nnc(-c2ccccc2N=Cc2c(C)[nH]n(-c3ccccc3)c2=O)c(=O)[nH]1`, the “hERG current change (%, negative = inhibition) at 10uM” value was -17.6%. For `O=C(NCc1ccco1)c1cc(-c2cccc(Cl)c2)on1`, the “hERG current change (%, negative = inhibition) at 10uM” value was -3.62%. `C=CCn1c2ccccc2c(=O)c2cc(C#Cc3cc(OC)cc(OC)c3)ccc21` was tested, and the “hERG current change (%, negative = inhibition) at 10uM” value was 10.4%. `Cc1cc(N/N=C/c2ccco2)c2ccccc2n1` was tested, and the “hERG current change (%, negative = inhibition) at 10uM” value was 16.6%. In the case of `CC1CCN(C(=O)C2CCN(c3nnc(-n4cccc4)s3)CC2)CC1`, the “hERG current change (%, negative = inhibition) at 10uM” value was -12.1%. For `Cc1cccc(OCC(=O)NNC(=O)c2cc3ccccc3oc2=O)c1`, the “hERG current change (%, negative = inhibition) at 10uM” value was -9.32%.
